Measurements: PubChem BioAssay AID1346428 (National Center for Advancing Translational Sciences (NCATS), 2018)
Values joined by “and” are separate entries in the source; they are usually repeats but may differ in a detail not shown here. Equal values may be shown once. In all, about 48,000 compounds went through this assay and about 1,200 (2.5%) were called active. Not shown: some 2% with an inconclusive outcome.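 How the source made its calls: active means activation of at least 60% and not above a set upper limit (about 1 call in 100 departs from these limits); inconclusive means activation of 40% to 60%, or above that upper limit; inactive means activation under 40%.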 The list shows a part of the results.

target: Probable G-protein coupled receptor 32 (Homo sapiens) (UniProt O75388); test: qHTS for Agonists of Human Resolvin D1 Receptor DRV1; settings: CHO-K1 GPR32 beta-arrestin PathHunter luminescence, 90 min; at 76.9 µM; hits give high values; zero percent set by DMSO-only wells; further: 0% is about no effect
Chain of UniProt O75388 (O75388 whole entry, looked up): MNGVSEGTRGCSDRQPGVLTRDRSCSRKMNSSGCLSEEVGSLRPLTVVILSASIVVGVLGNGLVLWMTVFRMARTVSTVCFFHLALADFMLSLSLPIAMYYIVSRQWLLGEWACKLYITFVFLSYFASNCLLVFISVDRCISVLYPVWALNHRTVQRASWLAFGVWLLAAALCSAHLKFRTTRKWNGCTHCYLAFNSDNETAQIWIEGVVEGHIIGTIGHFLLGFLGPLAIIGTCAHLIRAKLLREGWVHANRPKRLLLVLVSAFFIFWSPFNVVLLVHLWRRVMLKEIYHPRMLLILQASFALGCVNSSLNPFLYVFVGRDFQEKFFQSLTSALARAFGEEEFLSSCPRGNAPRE
Method in brief: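 PathHunter beta-arrestin recruitment in CHO-K1 cells stably expressing ProLink-tagged GPR32. Cells were exposed to compound for 90 min at 37 C, then chemiluminescence was read after 1 h detection at ambient temperature; DMSO served as basal control.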

SMILES | activation
Cc1ccc(CNC(=O)CSCc2nc(-c3ccc(Cl)cc3)oc2C)cc1 | inactive: -16.3%
COc1cccc(-c2ccnc3c(-c4ccccc4)c(C)nn23)c1 | inactive: -2.68%
CCOC(=O)c1[nH]c2ccccc2c1NC(=O)c1cc(OC)cc(OC)c1 | inactive: -10.7%
Cc1cccc(N2CCN(C(=O)COCc3cc(-c4ccc5c(c4)OCO5)on3)CC2)c1C | inactive: -17.2%
COc1ccc(-c2cc(C(=O)NCCc3ccc(Cl)cc3)[nH]n2)cc1 | inactive: 1.68%
Cc1ccccc1-c1nc2c3c(-c4ccccc4)c(-c4ccccc4)oc3ncn2n1 | inactive: -17.4%
CCOc1ccc(NC(=O)N2CCC(CN3CCC(C)CC3)CC2)cc1 | inactive: 7.92%
COc1ccc(-c2cc(C(=O)Nc3cccc(C(C)=O)c3)no2)cc1OC | inactive: 15.3%
COC(=O)c1ccccc1NC(=O)COCc1cc(-c2cccs2)on1 | inactive: -8.17%
CCn1c(=O)n(-c2ccc(F)c(Cl)c2)c(=O)c2sc3ccccc3c21 | inactive: 30.9%
Cc1ccc(CN(C(=O)c2ccc(F)cc2)c2ccccn2)o1 | inactive: -37.7%
Cc1ccc(CNc2nc3c(c(=O)n(C)c(=O)n3C)n2Cc2ccc(Cl)cc2)cc1 | inactive: 8.98%
Cc1cccc(-n2nnc(-c3nc(-c4ccccc4)no3)c2N)c1C | inactive: 2.03%
COc1cccc(CNC(=O)c2ccc3c(c2)nc2n3CCOC2)c1OC | inactive: -5.34%
Cc1ccc(C)c(NC(=O)CN2CCN(C3CCCCC3)C(=O)C2=O)c1 | inactive: 40.6%
CC1CCN(S(=O)(=O)c2ccc3c(ccn3CC(=O)NCc3ccccc3F)c2)CC1 | inactive: 28.6%
CCn1cc(C(=O)NCCc2ccc(OC)c(OC)c2)c(=O)c2cc(S(=O)(=O)N3CCOCC3)ccc21 | inactive: -31.3%
Cc1ccc(C(=O)Nc2nnc(S(=O)(=O)N(C)Cc3ccco3)s2)cc1 | inactive: 1.46%
CCc1nc2c(cnn2-c2ccc(C)cc2)c(=O)n1-c1ccc(C)cc1 | inactive: -4.43%
Cc1cnc(C(=O)NCCc2ccc(S(=O)(=O)NC(=O)NC3CCCCC3)cc2)cn1 | inactive: -2.26% and inactive: 8.31%
Cc1ccc(-c2noc(C(C)NC(=O)c3ccco3)n2)cc1 (stereo unspecified) | inactive: 0%

SMILES | activation
CC(C)(C)C1CCc2nc(NC(=O)COc3ccccc3[N+](=O)[O-])sc2C1 (stereo unspecified) | inactive: -1.99%
COc1ccc2c(CNC3CCCC3)c(C(=O)O)n(Cc3ccccc3C)c2c1 | inactive: -7.55%
CCc1nn2c(=O)cc(COC(=O)c3cccc(NC(=O)c4ccccc4C)c3)nc2s1 | inactive: -7.66%
COCCCNC(=O)CSc1nc2cc3c(cc2c(=O)n1CCCCCC(=O)NCCc1ccc(OC)c(OC)c1)OCO3 | inactive: -4.57%
CC(C)C(=O)Nc1cccc(C(F)(F)F)c1 | active: 60.7%
CC1=C(c2ccc(C)cc2)S(=O)(=O)N(Cc2ccc(C(=O)NCc3ccccc3)cc2)C1=O | inactive: -16.2%
O=C(NCc1ccc(F)cc1)c1ccc2c(c1)N(Cc1c(F)cccc1Cl)C(=O)CS2 | inactive: -14.4%
Cc1cc(C)c2c(=O)cc(C(=O)Nc3sc4c(c3C#N)CCCC4)oc2c1 | inactive: 28.6%
O=C(Nc1cc(C(F)(F)F)ccc1Cl)c1noc2c1CCCCC2 | inactive: 49.8%
Cc1ccccc1NC(=O)CN1C(=O)C2(SCC(=O)N2c2ccc(F)cc2)c2ccccc21 (stereo unspecified) | inactive: -3.18%
COc1cc(NC(=O)Cn2c(=O)n(CC(=O)NCCc3ccc(OC)c(OC)c3)c(=O)c3sccc32)cc(OC)c1 | inactive: -18.9%
Cc1nc(-c2ccc(S(=O)(=O)N3CCN(c4cccc(Cl)c4)CC3)cc2)co1 | inactive: 13%
CC(=O)c1cccc(NC(=O)c2sc(-n3nc(C)c(CCC(C)C)c3C)nc2C)c1 | inactive: 2.16%
CC(=O)Nc1ccc(S(=O)(=O)NCC2CCC(C(=O)NCc3ccccc3Cl)CC2)cc1 (stereo unspecified) | inactive: -4.03%
COc1cccc(Nc2sc(C(=O)c3ccc4c(c3)OCO4)c(N)c2S(=O)(=O)c2ccccc2)c1 | inactive: -25.4%
COc1ccc(-n2nnnc2C2CCN(S(=O)(=O)c3ccc(F)cc3Cl)CC2)cc1 | inactive: -16.8%
COc1ccc(N2CC(NC(=O)Cc3cccs3)CC2=O)cc1 (stereo unspecified) | inactive: -8.24%
CC(=O)NCCNc1nc2c(-c3cccc(C)c3)nnn2c2ccc(Cl)cc12 | inactive: -3.72%
CSc1ccc(CNC(=O)Cc2csc3ccccc23)cc1 | inactive: -17.4%
CCn1c(C)c(C)c2cc(C(=O)NCc3ccc(N(C)C)cc3)ccc21 | inactive: -22.5%
